From US20210284734A1 (SYMPHOGEN A S, published 2021) come the findings set out here.

In test [1] the target is T1, human PD-1 Fc fusion protein (Sino Biological) (human, UniProt Q15116 part only, limits assumed).
T1 construct: bought; not shown: Fc of the commercial fusion protein
The experiment in a line: BLI, PD-1-Fc saturated with 10 ug/ml antibody, then PD-L1-Fc.

In test [2] the target is T1, human PD-1 Fc fusion protein (Sino …). The experiment in a line: BLI, PD-1-Fc saturated with 10 ug/ml antibody, then PD-L2-Fc. A general note: BLI is a label-free optical method that tracks binding on a fibre tip over time.
For test [3], the target named is T2, human PD-1 expressed on CHO-S cells (human, UniProt Q15116 25-288).
T2 construct: also called PD-1-expressing cells
The experiment in a line: flow cytometry competition, 10 ug/ml antibody vs R-PE PD-L1-Fc on PD-1 CHO-S cells. In general terms: Flow cytometry measures light scatter and fluorescence of single cells or particles in a stream.

B1: 12748.13354 (antibody)
chain 1: EVQLLESGGGLVQPGGSLRLSCAASGFTFSDYAMNWVRQAPGKGLEWVAGIGNDGSYTNYGAAVKGRATISRDNSKNTLYLQMNSLRAEDTAVYYCASDIRSRNDCSYFLGGCSSGFIDVWGQGTLVTVSSASTKGPSVFPLAPSSKSTSGGTAALGCLVKDYFPEPVTVSWNSGALTSGVHTFPAVLQSSGLYSLSSVVTVPSSSLGTQTYICNVNHKPSNTKVDKRV[human IgG1 Fc with changes omitted]
chain 2: not shown
With B1, the “% Blocking” value in test [1] came out at 97%; in test [2] it was 96%. In test [3], the “% PD-L1 binding inhibition” value was found to be 86%.
